Laboratory results published in paper PMC4336329 (PLoS ONE, 2015).
About 2,200 (0.71%) of roughly 310,000 compounds showed an effect of 50% or more. Effects have a minus sign here. This is one part of the list.

Each compound was assayed against human ether-à-go-go-related gene (hERG) potassium channel (human, UniProt Q12809) (assay: primary screen, population patch clamp on CHO cells stably expressing hERG).
Sequence of human ether-à-go-go-related gene (hERG) potassium channel (Q12809 whole entry, looked up): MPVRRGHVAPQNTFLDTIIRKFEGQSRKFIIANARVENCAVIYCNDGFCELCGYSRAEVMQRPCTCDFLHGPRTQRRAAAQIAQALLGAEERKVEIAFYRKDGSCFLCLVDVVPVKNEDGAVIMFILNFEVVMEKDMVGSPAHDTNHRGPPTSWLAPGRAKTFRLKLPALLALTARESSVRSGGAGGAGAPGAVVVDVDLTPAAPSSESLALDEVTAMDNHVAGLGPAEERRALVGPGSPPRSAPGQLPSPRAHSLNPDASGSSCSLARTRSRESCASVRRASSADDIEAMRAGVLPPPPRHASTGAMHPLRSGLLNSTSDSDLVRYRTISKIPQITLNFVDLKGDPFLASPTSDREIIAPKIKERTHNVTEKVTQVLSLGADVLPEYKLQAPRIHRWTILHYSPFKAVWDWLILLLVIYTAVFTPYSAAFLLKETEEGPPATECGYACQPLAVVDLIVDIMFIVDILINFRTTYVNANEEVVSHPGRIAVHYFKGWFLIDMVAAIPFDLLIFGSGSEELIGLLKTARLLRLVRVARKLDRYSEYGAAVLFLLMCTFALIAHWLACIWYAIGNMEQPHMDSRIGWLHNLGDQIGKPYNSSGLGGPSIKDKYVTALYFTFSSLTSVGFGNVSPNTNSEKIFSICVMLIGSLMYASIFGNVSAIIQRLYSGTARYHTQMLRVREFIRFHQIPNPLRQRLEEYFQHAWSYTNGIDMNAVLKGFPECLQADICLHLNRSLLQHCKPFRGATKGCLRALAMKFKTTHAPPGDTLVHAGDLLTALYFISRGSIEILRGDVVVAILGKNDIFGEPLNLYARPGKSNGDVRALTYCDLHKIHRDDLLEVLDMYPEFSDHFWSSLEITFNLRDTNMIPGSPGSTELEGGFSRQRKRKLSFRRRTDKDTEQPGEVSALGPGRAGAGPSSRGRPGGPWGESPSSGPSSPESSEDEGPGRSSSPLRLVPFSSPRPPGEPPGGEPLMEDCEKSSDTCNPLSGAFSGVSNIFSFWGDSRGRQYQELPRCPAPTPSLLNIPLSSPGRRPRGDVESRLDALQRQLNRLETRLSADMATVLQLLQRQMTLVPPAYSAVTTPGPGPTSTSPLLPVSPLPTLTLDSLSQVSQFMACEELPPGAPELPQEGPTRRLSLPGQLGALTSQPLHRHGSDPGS
With `NC(=O)c1cc(-c2cccnc2)nc2ccc(Br)cc12` the “hERG current change (%, negative = inhibition) at 1uM” value was 7.78%.
In the case of `C=CCOC(=O)/C(=C\c1ccc(OC)cc1)NC(=O)c1ccco1`, the “hERG current change (%, negative = inhibition) at 1uM” value is reported as 10.2%.
With `COCCn1c(SCc2ccc(OC)c(F)c2)nc2ccccc2c1=O` the “hERG current change (%, negative = inhibition) at 1uM” value was 13.6%.
`COc1ccc(NC(=O)CNS(=O)(=O)c2ccc(Cl)cc2)cc1OC` was tested, and the “hERG current change (%, negative = inhibition) at 1uM” value was 2.3%.
In the case of `C=CCc1cccc(CNc2cnc3ccccc3c2)c1O`, the “hERG current change (%, negative = inhibition) at 1uM” value is reported as 5.06%.
For `CCCOc1cccc(C(=O)NCCCNC(=O)c2cccnc2)c1`, the “hERG current change (%, negative = inhibition) at 1uM” value was -8.74%.
For `CC(=O)NCc1nc2ccccc2n1Cc1ccccc1C`, the “hERG current change (%, negative = inhibition) at 1uM” value was 10.3%.
With `CCc1noc(C)c1C(=O)Nc1nc2ccc(F)cc2s1` the “hERG current change (%, negative = inhibition) at 1uM” value was 9.21%.
`CC(C)C(=O)N1CCC(n2nccc2NC(=O)CCOc2ccccc2)CC1` was tested, and the “hERG current change (%, negative = inhibition) at 1uM” value was 0.685%.
With `CCCNS(=O)(=O)c1cccc(C(=O)OCc2cc(=O)oc3cc(OC)ccc23)c1` the “hERG current change (%, negative = inhibition) at 1uM” value was 2.46%.
In the case of `CCNC(=S)NNC(=O)c1ccncc1`, the “hERG current change (%, negative = inhibition) at 1uM” value is reported as 11.2%.
For `COc1cccc(CSc2nc(N)cc(N)n2)c1`, the “hERG current change (%, negative = inhibition) at 1uM” value was 10.5%.
With `CC1CCCCC1NC(=O)CC1Oc2ccccc2NC1=O` (centres unmarked) the “hERG current change (%, negative = inhibition) at 1uM” value was -0.373%.
With `O=c1ccc2ccccc2o1` the “hERG current change (%, negative = inhibition) at 1uM” value was 18.3%.
In the case of `COc1ccc(C2CC(c3cccs3)=NN2C(=O)CSc2nc3ccccc3s2)cc1` (centres unmarked), the “hERG current change (%, negative = inhibition) at 1uM” value is reported as 10.6%.
In the case of `CC(NC(=O)c1ccccc1Br)c1ccc2c(c1)CCCC2` (centres unmarked), the “hERG current change (%, negative = inhibition) at 1uM” value is reported as -12%.
`O=C(CSc1nnc(COc2cccc3ccccc23)o1)N1CCN(C(=O)c2ccco2)CC1` was tested, and the “hERG current change (%, negative = inhibition) at 1uM” value was -44.8%.
With `Cc1c(C(C)NC(=O)c2cc(COc3cccc4cnccc34)on2)cnn1C` (centres unmarked) the “hERG current change (%, negative = inhibition) at 1uM” value was 24.7%.
`COC(=O)/C(=C\C(=O)c1ccccc1)Nc1cccc(C(F)(F)F)c1` was tested, and the “hERG current change (%, negative = inhibition) at 1uM” value was 6.48%.
In the case of `CC(=O)Nc1c2c(nn1-c1ccc(C)cc1)CSC2`, the “hERG current change (%, negative = inhibition) at 1uM” value is reported as 14.5%.
For `CCOCCCNC(=O)C(=O)NCCCOCC`, the “hERG current change (%, negative = inhibition) at 1uM” value was 7.7%.
In the case of `CN(C)CCNC(=S)Nc1ccccc1C(C)(C)C`, the “hERG current change (%, negative = inhibition) at 1uM” value is reported as 10.1%.
In the case of `Cn1c(SCc2cccc(Br)c2)nc2c1c(=O)[nH]c(=O)n2C`, the “hERG current change (%, negative = inhibition) at 1uM” value is reported as 14.3%.
For `Cc1ccc(NC(=O)N2CCCC2C(=O)Nc2ccc(-n3cnnn3)c(C)c2)cc1` (centres unmarked), the “hERG current change (%, negative = inhibition) at 1uM” value was -1.23%.
In the case of `COc1ccc(N2CCN(C(=O)CNC(=O)c3ccc4ccccc4c3)CC2)cc1`, the “hERG current change (%, negative = inhibition) at 1uM” value is reported as 9.7%.
In the case of `CC(C)c1ccc(OCC(=O)NC(=S)Nc2ccc3c4c(cccc24)CC3)cc1`, the “hERG current change (%, negative = inhibition) at 1uM” value is reported as -3.41%.
With `Cc1oc2cc(OC(C)C(=O)O)ccc2c(=O)c1Oc1ccccc1` (centres unmarked) the “hERG current change (%, negative = inhibition) at 1uM” value was 18.4%.
`O=C(NCC1CCCN(Cc2ccc3nonc3c2)C1)c1ccc(F)cc1` (centres unmarked) was tested, and the “hERG current change (%, negative = inhibition) at 1uM” value was -13.9%.
In the case of `Cc1cc(C)c(C#N)c(SCC(=O)N(C)C2CCCCC2)n1`, the “hERG current change (%, negative = inhibition) at 1uM” value is reported as -4.26%.
With `CC(C)Nc1nc(NC(C)C)nc(Oc2ccc(/C=N/O)cc2)n1` the “hERG current change (%, negative = inhibition) at 1uM” value was -5.96%.
In the case of `COc1ccc(CC(=O)n2c(CC#N)nc3ccccc32)cc1OC`, the “hERG current change (%, negative = inhibition) at 1uM” value is reported as 13.4%.
`Cc1nn(-c2ccccc2)nc1CNC(=O)c1ncoc1-c1ccccc1` was tested, and the “hERG current change (%, negative = inhibition) at 1uM” value was 8.91%.
In the case of `CCOC(=O)c1c(N2C(=O)CC(Sc3ccccc3C(=O)O)C2=O)sc2c1CCCC2` (centres unmarked), the “hERG current change (%, negative = inhibition) at 1uM” value is reported as 11%.
In the case of `CCOC(=O)CNC(=S)N(CCCN1CCN(C)CC1)Cc1cccs1`, the “hERG current change (%, negative = inhibition) at 1uM” value is reported as 1.64%.
In the case of `CCC(NC(=O)c1ccc2nc(Cc3ccc(OC)cc3)oc2c1)c1ccncc1` (centres unmarked), the “hERG current change (%, negative = inhibition) at 1uM” value is reported as 4.78%.
For `COc1ccc(C(=O)C2CCN(CC(=O)Nc3cc(C)cc(C)c3)CC2)cc1`, the “hERG current change (%, negative = inhibition) at 1uM” value was -28.1%.
`Cc1cccc[n+]1CC(=O)N1c2ccccc2Sc2ccccc21.[Cl-]` was tested, and the “hERG current change (%, negative = inhibition) at 1uM” value was 13%.
With `Nc1nc(Nc2cccc(Cl)c2)n[nH]1` the “hERG current change (%, negative = inhibition) at 1uM” value was 12.7%.
With `COC(=O)C(C)NS(=O)(=O)c1ccc(NC(C)=O)cc1` (centres unmarked) the “hERG current change (%, negative = inhibition) at 1uM” value was 1.66%.
With `Cc1cc(Cl)ccc1NC(=O)C1CCCN1C(=O)c1cccs1` (centres unmarked) the “hERG current change (%, negative = inhibition) at 1uM” value was 10.2%.
With `COC(=O)Cn1c2ccc(Cl)cc2c2nc(C)sc21` the “hERG current change (%, negative = inhibition) at 1uM” value was 13.9%.
In the case of `O=C(N/N=C/c1cc2c(cc1Br)OCO2)c1ccccn1`, the “hERG current change (%, negative = inhibition) at 1uM” value is reported as 16.1%.
For `CNC(=O)N(O)C1N(/N=C/c2ccccc2F)C(=S)SC1(C)C` (centres unmarked), the “hERG current change (%, negative = inhibition) at 1uM” value was 2.8%.
For `CC(/C=N/NC(=O)c1cc(-c2ccc(C)s2)[nH]n1)=C\c1ccccc1`, the “hERG current change (%, negative = inhibition) at 1uM” value was 6.31%.
With `CCC(=NCCc1c[nH]c2ccccc12)c1c(O)n(-c2ccc(C)cc2)c(=O)[nH]c1=O` the “hERG current change (%, negative = inhibition) at 1uM” value was 20.4%.
In the case of `CCCNC(=O)c1ccc2c(c1)ncn2-c1cc(C)cc(C)c1`, the “hERG current change (%, negative = inhibition) at 1uM” value is reported as -2.26%.
In the case of `COc1cc([N+](=O)[O-])ccc1NC(=O)C1C2C=CC(C2)C1C(=O)O` (centres unmarked), the “hERG current change (%, negative = inhibition) at 1uM” value is reported as 12.1%.
`COc1ccc2c(=O)c3c(=O)n(Cc4ccco4)c(-c4ccc(C)cc4)nc3oc2c1` was tested, and the “hERG current change (%, negative = inhibition) at 1uM” value was -9.46%.
`CCn1cc(/C=C2\SC(=O)N(CC(=O)Nc3ccc4c(c3)OCO4)C2=O)c2ccccc21` was tested, and the “hERG current change (%, negative = inhibition) at 1uM” value was 1.81%.
`COc1cc(C(=O)ON=C2C(C)=CC(=O)C=C2C)cc(OC)c1OC` was tested, and the “hERG current change (%, negative = inhibition) at 1uM” value was 4.38%.
`CCc1ccc(N=C2NC(=O)CS2)cc1` was tested, and the “hERG current change (%, negative = inhibition) at 1uM” value was 12.6%.
`Cn1c(N)c(C(=O)CSc2ccc3c(c2)OCCO3)c(=O)n(C)c1=O` was tested, and the “hERG current change (%, negative = inhibition) at 1uM” value was 11.4%.
In the case of `O=C1NC(=Nc2ccccc2)SC1Cc1ccccc1` (centres unmarked), the “hERG current change (%, negative = inhibition) at 1uM” value is reported as 10.2%.
For `CCOC(=O)Cc1csc(NC(=O)c2c(-c3c(Cl)cccc3Cl)noc2C)n1`, the “hERG current change (%, negative = inhibition) at 1uM” value was 12%.
`COP(=O)(OC)C1(O)C(=O)Nc2ccc(Br)cc21` (centres unmarked) was tested, and the “hERG current change (%, negative = inhibition) at 1uM” value was 11.2%.
For `Cc1ccc2nc3n(c(=O)c2c1)-c1ccccc1C(=O)NC3Cc1ccccc1` (centres unmarked), the “hERG current change (%, negative = inhibition) at 1uM” value was 12.8%.
`Cc1nn(Cc2ccc(F)cc2)c(C)c1NC(=O)c1noc2c1CCCCC2` was tested, and the “hERG current change (%, negative = inhibition) at 1uM” value was 5.05%.
For `COC(=O)C(CCSC)NC(=O)c1cc2c(n(-c3ccccc3)c1=O)CCCC2=O` (centres unmarked), the “hERG current change (%, negative = inhibition) at 1uM” value was 7.16%.
For `COc1ccccc1NC(=O)C1CC(C(C)C)OC1=O` (centres unmarked), the “hERG current change (%, negative = inhibition) at 1uM” value was 8.25%.
